Assay results from PubChem BioAssay AID504339 (National Center for Advancing Translational Sciences (NCATS), 2011).
Hit rate of the full screen: of about 390,000 compounds, about 17,000 (4.4%) were called active. Inconclusive results, whose numbers are uncertain, are shown with a selection of clear calls. Calls come from the whole dose curve; as a rule, active = well fitted inhibition curve with a large enough effect; inconclusive = small, poorly fitted or top-dose-only effect; inactive = no such curve, though single readings can be large or run the other way. Potencies of inconclusive entries are doubtful fits and often do not repeat.
% is set by controls: 0 for no effect and ±100 for the full control effect; potency is the fitted concentration of half-maximal effect; tags give direction and shape of the fitted curve.
Note: nearly all actives have a fitted effect of over 50% in size.

These compounds were tested against Lysine-specific demethylase 4A (Homo sapiens) (UniProt O75164) (assay: qHTS Assay for Inhibitors of JMJD2A-Tudor Domain). Details: AlphaScreen JMJD2A-Tudor / H3K4me3 peptide binding; activity change, negative = inhibition: at 114 µM (top of the series).
Chain of UniProt O75164 (O75164 whole entry, looked up, the tested form may be a part): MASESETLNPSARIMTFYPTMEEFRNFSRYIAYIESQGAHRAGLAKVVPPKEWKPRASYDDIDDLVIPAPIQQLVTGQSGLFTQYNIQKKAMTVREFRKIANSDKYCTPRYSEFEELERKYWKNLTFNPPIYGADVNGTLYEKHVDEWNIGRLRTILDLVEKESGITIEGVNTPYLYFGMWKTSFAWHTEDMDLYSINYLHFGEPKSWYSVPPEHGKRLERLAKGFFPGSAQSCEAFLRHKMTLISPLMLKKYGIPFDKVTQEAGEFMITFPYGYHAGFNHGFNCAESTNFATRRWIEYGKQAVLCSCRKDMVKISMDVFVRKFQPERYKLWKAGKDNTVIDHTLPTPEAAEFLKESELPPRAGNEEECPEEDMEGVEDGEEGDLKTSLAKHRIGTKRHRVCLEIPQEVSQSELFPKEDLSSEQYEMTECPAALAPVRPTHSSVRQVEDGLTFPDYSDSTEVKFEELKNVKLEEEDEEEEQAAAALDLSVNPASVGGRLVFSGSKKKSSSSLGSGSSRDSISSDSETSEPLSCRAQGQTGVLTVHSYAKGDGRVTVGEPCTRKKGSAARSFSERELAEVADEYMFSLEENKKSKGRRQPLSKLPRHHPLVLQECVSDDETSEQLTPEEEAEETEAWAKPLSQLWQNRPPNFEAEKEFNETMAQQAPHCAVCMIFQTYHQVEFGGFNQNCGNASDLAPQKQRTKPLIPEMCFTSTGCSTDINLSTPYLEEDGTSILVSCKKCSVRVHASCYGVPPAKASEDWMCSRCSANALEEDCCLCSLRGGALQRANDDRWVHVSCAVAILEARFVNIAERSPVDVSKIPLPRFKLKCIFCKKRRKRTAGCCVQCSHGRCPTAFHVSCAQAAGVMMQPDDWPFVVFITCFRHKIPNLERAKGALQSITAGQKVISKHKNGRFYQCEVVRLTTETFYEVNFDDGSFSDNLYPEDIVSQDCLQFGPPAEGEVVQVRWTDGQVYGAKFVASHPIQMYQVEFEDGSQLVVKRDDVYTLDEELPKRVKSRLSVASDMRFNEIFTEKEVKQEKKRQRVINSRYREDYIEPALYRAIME
For `CC1=C(C(=O)OC(C)C)C(c2cccc([N+](=O)[O-])c2)n2c(cc(=O)[nH]c2=S)N1` (stereo not drawn), the Potency was inconclusive: 50.1 µM [inhibitor, partial curve, poor fit]. With `Cc1cc(F)ccc1S(=O)(=O)Nc1cc2c(C(=O)O)c(C)oc2c2ccccc12` the Potency was inconclusive: 89.1 µM [inhibitor, partial curve]. `CCNCC(=O)N1c2ccccc2CCc2ccc(NC(=O)OC(C)C)cc21` was tested, and the Potency was inconclusive: 56.2 µM [inhibitor, partial curve]. In the case of `COc1ccc(OC)c(CC2C(=O)Nc3ccc(Br)cc32)c1` (stereo not drawn), the Potency is reported as inconclusive: 63.1 µM [inhibitor, partial curve, poor fit]. With `COc1ccc(NC(=S)NCC2CCN(c3ccc(OC)cc3)C2)cc1` (stereo not drawn) the Potency was active: 35.5 µM. `Cn1c(C(=O)NCc2ccccc2)cc2oc3ccccc3c21` was tested, and the Potency was inconclusive: 56.2 µM [inhibitor, partial curve]. `COC(=O)c1cc2sccc2n1Cc1ccc(F)cc1Cl` was tested, and the “activity change, negative = inhibition” value was inactive: -7.27%. `N#Cc1ccc(NC(=O)C2Cc3ccccc3CN2S(=O)(=O)c2ccc(F)cc2)cc1` (stereo not drawn) was tested, and the “activity change, negative = inhibition” value was inactive: -17%. In the case of `O=C(NCc1ccco1)c1cnn2c1NC(c1ccc(Br)cc1)CC2C(F)(F)F` (stereo not drawn), the Potency is reported as inconclusive: 3.55 µM [inhibitor, single point]. `O=C(O)C(Cc1ccccc1)N1C(=O)/C(=C/c2ccccc2)SC1=S` (stereo not drawn) was tested, and the Potency was inconclusive: 15.8 µM [inhibitor, full curve]. With `O=C(Nc1cccc(S(=O)(=O)N2CCCCCC2)c1)c1cncc(Br)c1` the Potency was inconclusive: 56.2 µM [inhibitor, partial curve, poor fit]. `O=C1NC(c2ccc(Br)cc2)Nc2sc3c(c21)CCC3` (stereo not drawn) was tested, and the Potency was inconclusive: 79.4 µM [inhibitor, single point]. With `COc1ccc(/C=C2\SC(=S)NC2=O)cc1OS(=O)(=O)c1ccc(NC(C)=O)cc1` the “activity change, negative = inhibition” value was inactive: -34.7%. `COc1ccccc1-c1noc(-c2ccc(NC3CCCC3)c([N+](=O)[O-])c2)n1` was tested, and the “activity change, negative = inhibition” value was inactive: -5.63%. With `CSc1cc(-c2ccc(Cl)cc2)c(C(=O)NC(C)C)s1` the Potency was inconclusive: 3.16 µM [inhibitor, partial curve]. `Cc1ccc(OCC(=O)N/N=C/c2cn(Cc3ccccc3)c3ccccc23)cc1` was tested, and the Potency was inconclusive: 39.8 µM [inhibitor, partial curve]. With `S=C(NCCCc1ccccc1)NC1CCCCC1` the “activity change, negative = inhibition” value was inactive: -18.2%. For `CCC(C)NC(=O)CNC(=O)c1nn(-c2ccc(OC)cc2OC)c(=O)c2ccccc12` (stereo not drawn), the “activity change, negative = inhibition” value was inactive: -14.7%. For `Cc1nn(-c2ccccc2)c(Cl)c1/C=N/Nc1ccc(Cl)c(C(=O)O)c1`, the Potency was inconclusive: 39.8 µM [inhibitor, partial curve]. With `CCc1cccc(CC)c1N1C(=O)c2cc(N3CCOCC3)c([N+](=O)[O-])cc2C1=O` the Potency was inconclusive: 31.6 µM [inhibitor, single point]. With `CCc1ccc(OCC(=O)NNC(=O)c2cc3ccccc3o2)cc1` the Potency was inconclusive: 56.2 µM [inhibitor, partial curve, poor fit]. For `COc1ccc(/C=N/NC(=O)c2cc(-c3cccc(C)c3)nc3ccccc23)cc1O`, the Potency was inconclusive: 39.8 µM [inhibitor, partial curve]. In the case of `Cc1cccc(/C=C(\C(=O)O)c2ccc(S(=O)(=O)N3CCCC3)s2)c1`, the Potency is reported as inconclusive: 20 µM [inhibitor, full curve]. In the case of `COc1ccccc1/C=C/C=N/Nc1cccc(C(=O)O)c1`, the Potency is reported as inconclusive: 50.1 µM [inhibitor, partial curve]. `COc1ccc(C(=O)C2C(c3ccc(-c4ccccc4[N+](=O)[O-])o3)NC(=O)NC2(O)C(F)(F)F)cc1` (stereo not drawn) was tested, and the Potency was inconclusive: 56.2 µM [inhibitor, partial curve]. With `O=C(COc1ccccc1)N1CCN(c2ccc([N+](=O)[O-])c(N3CCCCC3)c2)CC1` the Potency was inconclusive: 12.6 µM [inhibitor, full curve]. `CN1CCN(Cc2c(O)ccc3cc(Br)ccc23)CC1` was tested, and the Potency was inconclusive: 63.1 µM [inhibitor, partial curve, poor fit]. With `COc1ccc(-n2nc(C(=O)NCCCN3CCOCC3)c3ccccc3c2=O)c(OC)c1` the Potency was active: 56.2 µM. With `CCCCOc1ccc(OCCNC(=O)c2ccco2)cc1` the “activity change, negative = inhibition” value was inactive: -11%. For `Clc1ccc(-c2nnc3sc(Cc4cccs4)nn23)cc1`, the “activity change, negative = inhibition” value was inactive: -22.4%. For `CCOC(=O)/C=C(\C)Sc1cc(O)c2ccccc2c1O`, the Potency was active: 7.94 µM. For `Cc1ccccc1-n1c(SC/C(O)=C(\C#N)c2nc3ccccc3[nH]2)nnc1-c1ccncc1`, the Potency was active: 79.4 µM. For `Cc1cc(C)c2c(=O)cc(C(=O)Nc3sc4c(c3C(=O)NCC3CCCO3)CCCC4)oc2c1` (stereo not drawn), the “activity change, negative = inhibition” value was inactive: -9.72%. For `COc1ccc(CNC(=O)C[C@H]2C[C@H](C(=O)N3CCCCC3)[C@@]3(CCc4ccccc4)c4[nH]c5ccc(Cl)cc5c4CCN3C2=O)cc1OC`, the Potency was inconclusive: 39.8 µM [inhibitor, partial curve]. `COc1cccc2c1C(=O)c1c(O)c3c(c(O)c1C2=O)CC(O)(C(C)=NNC(=O)c1ccc(Cl)c(Cl)c1)CC3OC1CC(N)C(O)C(C)O1` (stereo not drawn) was tested, and the Potency was active: 50.1 µM. With `O=C(NCc1ccco1)c1ccc(N2CCCCC2)c([N+](=O)[O-])c1` the Potency was inconclusive: 79.4 µM [inhibitor, partial curve]. With `CCCCCn1c(CN2CCN(c3ccc(OC)cc3)CC2)nc2c1c(=O)[nH]c(=O)n2C` the Potency was inconclusive: 44.7 µM [inhibitor, full curve, poor fit]. In the case of `COc1cccc(N2CCN(C(=O)c3ccc(CS(=O)c4ccccc4C)o3)CC2)c1` (stereo not drawn), the Potency is reported as inconclusive: 15.8 µM [inhibitor, single point]. `Cc1nn(C)c2c1c(-c1ccccc1)cc(=O)n2CC(=O)NC(C)c1ccccc1` (stereo not drawn) was tested, and the Potency was active: 50.1 µM. `Cc1ccccc1-n1c(-c2ccco2)n[nH]c1=S` was tested, and the Potency was active: 3.16 µM. In the case of `Oc1ccc2ccccc2c1N=Nc1ccc(F)cc1`, the Potency is reported as active: 2.24 µM. With `COCc1c(C(=O)OCc2nc(N)nc(Nc3ccccc3C)n2)oc2ccccc12` the “activity change, negative = inhibition” value was inactive: -29.9%. With `CCOc1ccc(-c2cc3nc(C4CCN(C(=O)OC(C)(C)C)CC4)c(C(=O)Nc4cc(OC)ccc4OC)cn3n2)cc1` the Potency was inconclusive: 10 µM [inhibitor, partial curve, poor fit]. In the case of `COc1ccc(C(=O)c2c(C)c(CCC#N)n3ccccc23)c(OC)c1`, the Potency is reported as active: 35.5 µM. In the case of `CC(C)[C@@H]1CN=C(N)N1C[C@@H]1CCCN1C[C@H](C)N1C[C@@H](Cc2ccccc2)N(CCc2ccc(Cl)c(Cl)c2)C1=N`, the Potency is reported as inconclusive: 79.4 µM [inhibitor, partial curve]. `O=S(=O)(Nc1ccc(O)c2ccccc12)c1ccc(OC(F)(F)F)cc1` was tested, and the Potency was active: 50.1 µM. `COc1ccccc1-c1sc2ccccc2c1-c1ccc(OCCN2CCOCC2)cc1` was tested, and the Potency was active: 50.1 µM. With `CCn1c(CC(=O)Nc2ccc(C)cc2)nnc1SCC(=O)Nc1nc(C)cs1` the Potency was inconclusive: 39.8 µM [inhibitor, single point]. For `COc1ccc(C2C(C(=O)c3ccc(C)o3)=C(O)C(=O)N2c2cc(C)on2)cc1OC` (stereo not drawn), the Potency was inconclusive: 89.1 µM [inhibitor, single point]. With `COc1cc2sc3ccc(C#Cc4ccccn4)cc3c(=O)c2cc1OC` the Potency was inconclusive: 35.5 µM [inhibitor, partial curve]. In the case of `CCn1c(CCCc2ccc(OC)c(C)c2)n[nH]c1=S`, the Potency is reported as inconclusive: 25.1 µM [inhibitor, single point]. `O=C(Nc1cccc(C(F)(F)F)c1)c1cccnc1N1CCN(c2ccccc2)CC1` was tested, and the Potency was active: 79.4 µM. In the case of `O=C(O)CCc1ccc(-c2ccccc2)n1Cc1ccco1`, the Potency is reported as inconclusive: 70.8 µM [inhibitor, partial curve]. For `CCN(CC(=O)NC1CCS(=O)(=O)C1)C(C)C(=O)Nc1ccc(F)cc1` (stereo not drawn), the “activity change, negative = inhibition” value was inactive: 2.75%. `COc1ccc(Nc2oc(COc3ccccc3F)nc2C#N)cc1` was tested, and the Potency was inconclusive: 44.7 µM [inhibitor, partial curve]. With `Cc1cc(=O)n(Cc2ccc(Cl)cc2)c2c1c(C)nn2-c1ccccc1` the “activity change, negative = inhibition” value was inactive: 47.7%. With `Cc1cccc(NC(=O)c2sc3nc4c(c(-c5ccco5)c3c2N)CCC4)c1` the Potency was inconclusive: 3.55 µM [inhibitor, single point]. `COc1ccc(C(=O)N2c3cc4c(cc3C(C)=CC2(C)C)OCO4)cc1` was tested, and the Potency was inconclusive: 31.6 µM [inhibitor, partial curve, poor fit]. With `CCN1C(=O)/C(=C\c2nc3ccccc3c(=O)n2CC)c2ccccc21` the Potency was active: 15.8 µM. In the case of `COC(=O)CCCC1=CC2=C(c3ccccc3)C(=O)C(C)(OC(=O)C3CCCC3)C(=O)C2=CN1C1CCCCC1` (stereo not drawn), the Potency is reported as inconclusive: 50.1 µM [inhibitor, partial curve]. For `Cn1c2cc(C#N)sc2c2cnn(Cc3ccccc3F)c(=O)c21`, the Potency was “inactive”. With `COc1ccc(N2CCN(CCCNC(=O)C3CCCN(S(=O)(=O)c4cnc[nH]4)C3)CC2)cc1` (stereo not drawn) the Potency was inconclusive: 56.2 µM [inhibitor, partial curve]. With `CC(C)c1ccc(/C=C/C(=O)NC(=S)Nc2ccc(CN3CCOCC3)cc2)cc1` the Potency was inconclusive: 10 µM [inhibitor, full curve]. In the case of `COCCSc1nnc(NS(=O)(=O)c2ccc(C)cc2)s1`, the “activity change, negative = inhibition” value is reported as inactive: -21.8% [at 57.1 µM]. For `Cc1ccc(N(CCC#N)C(=O)COC(=O)c2cc(C)oc2C)cc1`, the “activity change, negative = inhibition” value was inactive: -14.9%. `CN1CCC(=C(c2ccccc2)c2ccc(Br)cc2)CC1` was tested, and the Potency was inconclusive: 56.2 µM [inhibitor, partial curve]. `COc1ccc(O)c(-c2nc3ccccc3c(=O)n2Cc2ccccc2)c1` was tested, and the Potency was active: 79.4 µM. In the case of `CCOc1ccc(CN(C)c2ccc(S(=O)(=O)N3CCN(C)CC3)cc2[N+](=O)[O-])cc1OC`, the Potency is reported as inconclusive: 44.7 µM [inhibitor, partial curve].
